Laboratory results from patent publication US20200407452A1 (published 2020).

What was measured:
[1] = biological target: T1, native human MET on living cells (human, UniProt P08581); assay: cell-based or functional assay
[2] = biological target: T1, native human MET on living cells; assay: cell-based or functional assay; remark: listed apart in the source
T1 sequence (P08581 25-1390): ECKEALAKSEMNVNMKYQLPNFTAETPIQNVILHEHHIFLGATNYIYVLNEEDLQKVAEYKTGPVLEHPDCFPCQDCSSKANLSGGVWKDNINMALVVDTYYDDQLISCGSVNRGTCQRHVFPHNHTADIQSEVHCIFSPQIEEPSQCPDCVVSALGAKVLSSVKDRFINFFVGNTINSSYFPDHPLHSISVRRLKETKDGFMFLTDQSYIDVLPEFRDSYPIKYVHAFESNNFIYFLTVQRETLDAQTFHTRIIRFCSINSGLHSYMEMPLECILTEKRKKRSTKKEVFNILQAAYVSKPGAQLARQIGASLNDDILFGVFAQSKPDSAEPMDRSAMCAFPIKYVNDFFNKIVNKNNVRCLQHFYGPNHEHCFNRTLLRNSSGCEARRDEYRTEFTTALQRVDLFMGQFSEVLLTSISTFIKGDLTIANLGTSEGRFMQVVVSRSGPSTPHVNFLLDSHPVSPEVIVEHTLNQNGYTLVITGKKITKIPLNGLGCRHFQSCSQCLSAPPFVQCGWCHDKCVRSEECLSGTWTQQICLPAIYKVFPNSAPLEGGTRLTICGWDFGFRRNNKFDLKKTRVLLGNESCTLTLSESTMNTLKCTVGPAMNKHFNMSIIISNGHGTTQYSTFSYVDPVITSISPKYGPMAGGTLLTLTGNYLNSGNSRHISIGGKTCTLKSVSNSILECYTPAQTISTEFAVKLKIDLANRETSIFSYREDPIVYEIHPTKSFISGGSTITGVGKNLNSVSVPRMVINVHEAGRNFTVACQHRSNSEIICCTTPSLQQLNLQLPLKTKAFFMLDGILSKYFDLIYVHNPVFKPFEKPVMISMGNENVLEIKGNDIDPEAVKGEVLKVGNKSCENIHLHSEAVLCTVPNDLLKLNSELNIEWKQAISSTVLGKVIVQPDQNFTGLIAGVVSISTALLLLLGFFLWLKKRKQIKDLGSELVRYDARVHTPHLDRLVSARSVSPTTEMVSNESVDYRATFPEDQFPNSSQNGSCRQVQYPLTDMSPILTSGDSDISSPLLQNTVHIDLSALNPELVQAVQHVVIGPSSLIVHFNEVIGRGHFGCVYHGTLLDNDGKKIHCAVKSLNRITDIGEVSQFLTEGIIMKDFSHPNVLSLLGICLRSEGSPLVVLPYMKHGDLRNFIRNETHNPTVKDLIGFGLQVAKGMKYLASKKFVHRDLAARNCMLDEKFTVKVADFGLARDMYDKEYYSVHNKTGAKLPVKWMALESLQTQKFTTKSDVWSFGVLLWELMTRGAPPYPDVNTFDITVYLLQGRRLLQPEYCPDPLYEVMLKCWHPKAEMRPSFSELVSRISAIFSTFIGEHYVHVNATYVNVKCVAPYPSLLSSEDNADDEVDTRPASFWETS

phospho-MET ELISA EMAX, A549 cells [1]: 100 % HGF activity
protection from staurosporine-induced apoptosis EC50, MCF10A cells [2]: 4.57 nM
protection from staurosporine-induced apoptosis EMAX, MCF10A cells [2]: 59.3%
B1: recombinant human HGF (R&D Systems) (ligand)
chain: not shown
modifications: biotinylated at the N-terminus using NHS-LC-biotin (in the competition ELISA only)
